Values marked as one replicate rest on one cluster of the flow cell; about a third of the high ones do not repeat.
System: ATP
Assay: switch fluorescence ratio, 500 uM ATP over buffer (Cy3 cluster intensity, sum of 5 cycles each) (fold (ratio)); higher = stronger signal-on switching upon ATP binding; sequences stand for … in TCGTCGGCAGCGTCAGATGTGTATAAGAGACAGTTTTTTTTTTTTTTTTTTTTTTTTT…TC
Settings: aptamer strand: ATP DNA aptamer (quencher-CACCTGGGGGAGTATTGCGGAGGAAGG + anchor), 100 nM annealed; ATP concentration: 500 uM; one replicate
Method in brief: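 Exposure to 500 uM ATP lasted 15 min at 22 °C before imaging, and a selection-buffer image was taken beforehand, for Cy3-labelled switching-strand clusters on a modified Illumina MiSeq flow-cell annealed to 100 nM quencher-labelled ATP aptamer. Five buffer/ATP cycles were run with NaOH stripping and re-annealing between them. The fluorescence ratio per cluster is summed target-cycle over summed buffer-cycle Cy3 intensity, averaged per switch-domain sequence. Clusters outside 100-1000 RFU were excluded.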

Sequence	switch fluorescence ratio
GGTACCTAGT	1.02
AATCTTAGGA	0.982
TCATAAGTG	0.983
GCCGTGCCTG	0.924
TTCTCAATTT	1.12
AGGCGGCTTT	1.03
CCAACTGCTC	1.37
TTCAGTCAAA	0.977
AACGTTCGAA	0.959
AGGTTGGTAT	1
TATGACTAAC	1.1
GTGGTCGG	1.03
CGTTCTGGGT	0.944
GTTTAACATC	1.05
GGACATGCGT	1.05
CTGTCCGGGG	0.989
AGATGGATCT	1.01
GCTGGGTTGT	0.989
CACACCCAGA	1.23
GCTCTAAGCT	1.01
AGGTGCTCAG	1.08
TATGTAAAGC	1.04
TCCAACCTGT	1.04

Sequence	switch fluorescence ratio
GGTACTTTGC	0.991
GACGTTGGCA	1.02
GCACTCGGGT	1.03
GGCCTATTAT	1.01
CTATACAAGG	0.969
GCAATACAGT	3.97
AAGAATGTCA	1.01
AGGTCCATTG	0.985
GCTAATCAGG	1.03
GTGTGAACAA	0.999
TGTCAAGGG	0.986
GCTTCAACCG	1.63
TCCGCCTCGA	2.62
AAAGGGACTC	1.02
CGCCCCAAGG	2.99
GAGGAAAAGG	1
CCAATTTGGC	1
CGGAAGACT	1.31
GATTGATACT	0.957
CTCTCGCAG	2.16
CAACGAGCCG	0.987
CGTGAGGCGA	1.04
ATCCCCGGGT	1.38

Sequence	switch fluorescence ratio
ATCTGCCCGC	1.08
AGGTCAGAC	0.984
GGTAAGCCA	0.963
TGTTCGTAAT	1.11
ATATCCTTCG	1.58
CCAGAGGCCC	1.02
ACCTCCCTGA	1.21
TCCGGTGAAT	1.04
ATTGCGACTA	0.979
GATACACTCA	1.02
TAGTGGTACG	0.966
TGCTCCCCGT	1.04
ATGACCAGAT	0.978
TTTACGTGGC	1.16
GTAGTCGGGG	1.07
AGATAAAGAG	0.959
TAGAGGCCAC	0.973
CATCTTGAC	1.01
GGGGCAAATG	1
AGTGCATGGC	1.13
CACGATGCGA	1.75
CGGCAGGTGG	1.05
GATAAGGAGC	0.931

Sequence	switch fluorescence ratio
TATTGGGGCC	1.07
CCGTATTAAT	1.17
AGCCCGGCGC	1.03
ACTTAGCTCT	1.01
CGAGTCTTTT	0.996
GAATTACTTG	0.976
AGTCTTGCAC	0.988
ATTGGTCTGT	0.952
TAATCAGAT	1.02
GAGGTTCC	1.02
TAAAGGTCCT	1.05
GTGTGGTCC	1.06
CGGTAGCGAG	0.94
CGCCCTAGGC	1.03
ATAAGCAAGG	1.06
TCCTTGGGAC	1.01
ACGGGAAGGT	1.03
CCGTCTTCAG	1.09
GGGTTTGTT	0.964
GAGTACGTAA	1.19
CTGACCCCTT	1.03
ATCTTAAGCT	0.981
CAATGGATAT	0.99

Sequence	switch fluorescence ratio
TGCCTCTTAG	0.971
TTTGCGACGA	1.05
GCGCGTGAGA	0.95
CAATTAGATA	1.01
TTAAGGTTGA	1.03
CGCTCTTGAG	0.961
TTGGACTCTC	1
TATTCGCCAC	1.15
TTGCGTACAT	0.999
AACGGTAGCG	0.996
CATTACATAC	1.35
TTGCTGGCCT	0.976
CATGGAAGAA	1.01
TCATTTCCAG	0.994
AGTAATCGTG	0.967
GCGCTGAGAG	1.03
CTATAACCCG	1.01
CATAGAGGCT	1.03
TATAAAGGAG	1.06
CCGAAAGGAG	1.01
TCGGAAATTA	0.976
AAGTGAAGGT	1
TGAATTACTA	0.999

Sequence	switch fluorescence ratio
CAAAGCCCGG	0.961
CTTGTTTCGG	1.03
TTCTCGGGAC	1.03
AACTGGGGAG	1.04
TACACCCTGC	1.14
GAATTAACTA	0.973
GTGAACATCG	1.02
ATCAACTTCG	0.994
GCTGCCATTC	1.14
AAAATCAGTT	0.985
TGGTACTTAA	1.01
AAGGGAATCT	1.06
TTTGGCAACA	1.07
GTAGTCGAGC	0.991
GACTTGAGGC	1.03
AAATCAAGTA	1.01
GCTGGGACGG	0.988
AATGCAAACG	1.07
GATTCTTCCC	1.08
TATGATGATT	1.31
AGCTTATGG	0.997
GGATTCCTGG	0.959
TCGAATTAGC	1.05

Sequence	switch fluorescence ratio
GTGTGAGTCG	1.09
GTGCGGGACC	1.04
AAGGTATAA	1.02
TATTGAAGCG	0.984
CAAACATTTA	0.981
TCCGATCGTT	1.69
CGCGGATCGC	1.03
ATTCCATTA	1.03
GGAGGGCTAC	1.04
ATTTGCTCTG	0.99
TCACATTGC	1
ATTTGACCAG	1.01
GTGTTTAGAA	0.99
ATATCAGATT	0.962
CAGGCTAATG	1
GCCATTAGTG	0.993
GGATACTTAA	1.05
TTACTAGGGC	0.941
CAGGCGAGCA	0.955
